Measurements: the supplement of paper PMC4967469
A lower IC50 marks a more sensitive line; a limit (>, <) means that the fit lies beyond the doses tested. AUC, from the same fit, is the share of area under the viability curve across the 256-fold dose range; the more sensitive the line, the further below 1. For some of these results: Any top dose called inferred comes from the curve model; the source does not state it.

Assays:
Experiment in all cases: Viability of human cancer cell lines after 72 h of drug (GDSC screen)
[1] = compound: C=C(c1ccc(C(=O)O)cc1)c1cc2c(cc1C)C(C)(C)CCC2(C)C [Bexarotene]; details: top dose 8 µM
Procedure: (§1)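 Human cancer cell lines in 384-well plates, medium with 10% serum, drug for 72 h over a 256-fold dose range (nine 2-fold or five 4-fold steps up to the top dose). Adherent lines were fixed and stained with the nucleic acid dye Syto60, suspension lines read with resazurin; signal relative to control wells, capped at 0 and 100%. One two-parameter sigmoid per drug and line, fitted in a mixed model over all curves with the slope shared within a line.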

[2] = compound: COc1cc(C(=O)NC2CCN(C)CC2)ccc1Nc1ncc2c(n1)N(C1CCCC1)C(C)CC(=O)N2C [NPK76-II-72-1]; details: top dose 10.24 µM; top dose inferred
Procedure: as §1

[3] = compound: COc1cc([C@@H]2c3cc4c(cc3[C@@H](O[C@@H]3O[C@@H]5CO[C@@H](C)O[C@H]5[C@H](O)[C@H]3O)[C@H]3COC(=O)[C@H]23)OCO4)cc(OC)c1O [Etoposide]; details: top dose 16 µM
Procedure: as §1

[4] = compound: COc1ccc(C(=O)CC2(O)C(=O)Nc3c(Cl)ccc(Cl)c32)cc1 [YK 4-279]; details: top dose 10 µM
Procedure: as §1

[5] = compound: Cc1ccc2nc(NCCN)c3ncc(C)n3c2c1 [BMS-345541]; details: top dose 16 µM
Procedure: as §1

[6] = compound: NC(=O)Nc1cc(-c2cccc(F)c2)sc1C(=O)N[C@H]1CCCNC1 [AZD7762]; details: top dose 2 µM
Procedure: as §1

[7] = compound: O=C(O)c1ccc(-c2c[nH]c3ncc(-c4ccccc4)cc23)cc1C1CCCC1 [GSK-650394]; details: top dose 16 µM; top dose inferred
Procedure: as §1

[8] = compound: Oc1nc(-c2ccc(C(F)(F)F)cc2)nc2c1CSCC2 [XAV 939]; details: top dose 5 µM; top dose inferred
Procedure: as §1

KYSE-70 (oesophagus, adherent)
AUC [1]: 0.926 | IC50 [1]: > 8 µM | AUC [2]: 0.979 | IC50 [2]: > 10.2 µM | AUC [3]: 0.829 | IC50 [3]: 11.2 µM | AUC [4]: 0.588 | IC50 [4]: 1120 nM | AUC [5]: 0.912 | IC50 [5]: > 16 µM | AUC [6]: 0.89 | IC50 [6]: > 2000 nM | AUC [7]: 0.82 | IC50 [7]: 10.3 µM | AUC [8]: 0.973 | IC50 [8]: > 5 µM

KYSE-150 (oesophagus, adherent)
AUC [1]: 0.961 | IC50 [1]: > 8 µM | AUC [2]: 0.959 | IC50 [2]: > 10.2 µM | AUC [3]: 0.398 | AUC [4]: 0.864 | IC50 [4]: 8130 nM | AUC [5]: 0.922 | IC50 [5]: > 16 µM | AUC [6]: 0.957 | IC50 [6]: > 2000 nM | AUC [7]: 0.717 | IC50 [7]: 3.98 µM | AUC [8]: 0.982 | IC50 [8]: > 5 µM

KYSE-450 (oesophagus, adherent)
AUC [1]: 0.906 | IC50 [1]: > 8 µM | AUC [2]: 0.904 | IC50 [2]: > 10.2 µM | AUC [3]: 0.615 | IC50 [3]: 2.03 µM | AUC [4]: 0.68 | IC50 [4]: 1920 nM | AUC [5]: 0.712 | IC50 [5]: 3.82 µM | AUC [6]: 0.727 | IC50 [6]: 530 nM | AUC [7]: 0.659 | IC50 [7]: 2.69 µM | AUC [8]: 0.97 | IC50 [8]: > 5 µM

KYSE-510 (oesophagus, adherent)
AUC [1]: 0.929 | IC50 [1]: > 8 µM | AUC [2]: 0.929 | IC50 [2]: > 10.2 µM | AUC [3]: 0.425 | IC50 [3]: 0.646 µM | AUC [4]: 0.623 | IC50 [4]: 1280 nM | AUC [5]: 0.935 | IC50 [5]: > 16 µM | AUC [6]: 0.848 | IC50 [6]: 1120 nM | AUC [7]: 0.526 | IC50 [7]: 1.16 µM | AUC [8]: 0.968 | IC50 [8]: > 5 µM

KYSE-520 (oesophagus, adherent)
AUC [1]: 0.955 | IC50 [1]: > 8 µM | AUC [2]: 0.968 | IC50 [2]: > 10.2 µM | AUC [3]: 0.853 | IC50 [3]: > 16 µM | AUC [4]: 0.846 | IC50 [4]: > 10000 nM | AUC [5]: 0.884 | IC50 [5]: > 16 µM | AUC [6]: 0.765 | IC50 [6]: 984 nM | AUC [7]: 0.967 | IC50 [7]: > 16 µM | AUC [8]: 0.979 | IC50 [8]: > 5 µM

L-428 (Hodgkin lymphoma, suspension)
AUC [1]: 0.988 | IC50 [1]: > 8 µM | AUC [2]: 0.965 | IC50 [2]: > 10.2 µM | AUC [3]: 0.697 | IC50 [3]: 3.31 µM | AUC [4]: 0.917 | IC50 [4]: > 10000 nM | AUC [5]: 0.891 | IC50 [5]: 14.7 µM | AUC [6]: 0.704 | IC50 [6]: 432 nM | AUC [7]: 0.954 | IC50 [7]: > 16 µM | AUC [8]: 0.992 | IC50 [8]: > 5 µM

L-540 (Hodgkin lymphoma, suspension)
AUC [1]: 0.935 | IC50 [1]: > 8 µM | AUC [2]: 0.899 | IC50 [2]: > 10.2 µM | AUC [3]: 0.533 | IC50 [3]: 1.22 µM | AUC [4]: 0.574 | IC50 [4]: 971 nM | AUC [5]: 0.876 | IC50 [5]: 12.9 µM | AUC [6]: 0.516 | IC50 [6]: 138 nM | AUC [7]: 0.952 | IC50 [7]: > 16 µM | AUC [8]: 0.981 | IC50 [8]: > 5 µM

L-1236 (Hodgkin lymphoma, suspension)
AUC [1]: 0.981 | IC50 [1]: > 8 µM | AUC [2]: 0.972 | IC50 [2]: > 10.2 µM | AUC [3]: 0.875 | IC50 [3]: 11.7 µM | AUC [4]: 0.981 | IC50 [4]: > 10000 nM | AUC [5]: 0.908 | IC50 [5]: > 16 µM | AUC [6]: 0.675 | IC50 [6]: 352 nM | AUC [7]: 0.982 | IC50 [7]: > 16 µM | AUC [8]: 0.991 | IC50 [8]: > 5 µM

LAMA-84 (chronic myeloid leukaemia, suspension)
AUC [1]: 0.914 | IC50 [1]: > 8 µM | AUC [2]: 0.599 | IC50 [2]: 1.21 µM | AUC [3]: 0.808 | IC50 [3]: 8.42 µM | AUC [4]: 0.983 | IC50 [4]: > 10000 nM | AUC [5]: 0.861 | IC50 [5]: 13.9 µM | AUC [6]: 0.404 | IC50 [6]: 67.9 nM | AUC [7]: 0.84 | IC50 [7]: 11.2 µM | AUC [8]: 0.947 | IC50 [8]: > 5 µM

LAN-6 (neuroblastoma, adherent)
AUC [1]: 0.982 | IC50 [1]: > 8 µM | AUC [2]: 0.96 | IC50 [2]: > 10.2 µM | AUC [3]: 0.98 | IC50 [3]: > 16 µM | AUC [4]: 0.885 | IC50 [4]: > 10000 nM | AUC [5]: 0.842 | IC50 [5]: 14.5 µM | AUC [6]: 0.772 | IC50 [6]: 917 nM | AUC [7]: 0.983 | IC50 [7]: > 16 µM | AUC [8]: 0.977 | IC50 [8]: > 5 µM

LB373-MEL-D (melanoma, adherent)
AUC [1]: 0.973 | IC50 [1]: > 8 µM | AUC [2]: 0.948 | IC50 [2]: > 10.2 µM | AUC [3]: 0.948 | IC50 [3]: > 16 µM | AUC [4]: 0.892 | IC50 [4]: > 10000 nM | AUC [5]: 0.983 | IC50 [5]: > 16 µM | AUC [6]: 0.988 | IC50 [6]: > 2000 nM | AUC [7]: 0.989 | IC50 [7]: > 16 µM | AUC [8]: 0.989 | IC50 [8]: > 5 µM

LB2241-RCC (kidney, adherent)
AUC [1]: 0.959 | IC50 [1]: > 8 µM | AUC [2]: 0.98 | IC50 [2]: > 10.2 µM | AUC [3]: 0.858 | IC50 [3]: 15.8 µM | AUC [4]: 0.714 | IC50 [4]: 2740 nM | AUC [5]: 0.98 | IC50 [5]: > 16 µM | AUC [6]: 0.497 | IC50 [6]: 122 nM | AUC [7]: 0.794 | IC50 [7]: 8.38 µM | AUC [8]: 0.945 | IC50 [8]: > 5 µM

LC4-1 (lymphoblastic leukaemia, suspension)
AUC [1]: 0.827 | IC50 [1]: 5.62 µM | AUC [2]: 0.628 | IC50 [2]: 1.51 µM | AUC [3]: 0.672 | IC50 [3]: 3.18 µM | AUC [4]: 0.734 | IC50 [4]: 3160 nM | AUC [5]: 0.787 | IC50 [5]: 7.76 µM | AUC [6]: 0.924 | IC50 [6]: > 2000 nM | AUC [7]: 0.935 | IC50 [7]: > 16 µM | AUC [8]: 0.98 | IC50 [8]: > 5 µM

LCLC-97TM1 (large cell lung carcinoma, adherent)
AUC [1]: 0.914 | IC50 [1]: > 8 µM | AUC [2]: 0.643 | IC50 [2]: 1.66 µM | AUC [3]: 0.416 | IC50 [3]: 0.575 µM | AUC [4]: 0.709 | IC50 [4]: 2590 nM | AUC [5]: 0.886 | IC50 [5]: > 16 µM | AUC [6]: 0.646 | IC50 [6]: 331 nM | AUC [7]: 0.563 | IC50 [7]: 1.51 µM | AUC [8]: 0.963 | IC50 [8]: > 5 µM

LCLC-103H (large cell lung carcinoma, adherent)
AUC [1]: 0.921 | IC50 [1]: > 8 µM | AUC [2]: 0.806 | IC50 [2]: 4.62 µM | AUC [3]: 0.462 | IC50 [3]: 0.798 µM | AUC [4]: 0.797 | IC50 [4]: 4210 nM | AUC [5]: 0.898 | IC50 [5]: > 16 µM | AUC [6]: 0.818 | IC50 [6]: 998 nM | AUC [7]: 0.695 | IC50 [7]: 3.31 µM | AUC [8]: 0.99 | IC50 [8]: > 5 µM

LK-2 (lung squamous cell carcinoma, adherent)
AUC [1]: 0.933 | IC50 [1]: > 8 µM | AUC [2]: 0.707 | IC50 [2]: 2.37 µM | AUC [3]: 0.563 | IC50 [3]: 1.47 µM | AUC [4]: 0.64 | IC50 [4]: 1480 nM | AUC [5]: 0.923 | IC50 [5]: > 16 µM | AUC [6]: 0.873 | IC50 [6]: 1740 nM | AUC [7]: 0.988 | IC50 [7]: > 16 µM | AUC [8]: 0.972 | IC50 [8]: > 5 µM

LN-18 (glioma, adherent)
AUC [1]: 0.933 | IC50 [1]: > 8 µM | AUC [2]: 0.994 | IC50 [2]: > 10.2 µM | AUC [3]: 0.555 | IC50 [3]: 1.37 µM | AUC [4]: 0.642 | IC50 [4]: 1420 nM | AUC [5]: 0.973 | IC50 [5]: > 16 µM | AUC [6]: 0.674 | IC50 [6]: 342 nM | AUC [7]: 0.548 | IC50 [7]: 1.32 µM | AUC [8]: 0.993 | IC50 [8]: > 5 µM
